According to the supplement of paper PMC11417369:
± gives the standard deviation of the averaged measurements. The list shows a part of the results.

The sequences below were run on PfAP2-G AP2 domain (GST-tagged) (assay: gcPBM binding intensity (ln(normalized median fluorescence intensity)); higher = stronger DNA binding).
How it was run: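 The binding buffer was 1× PBS containing 1% milk, 0.2 mg/ml BSA, 0.5% salmon testes DNA and 0.03% Triton X-100. In it, GST-tagged P. falciparum DNA-binding domains expressed in E. coli were applied for 1 h to an Agilent 4 × 180k array of primer-extended double-stranded 36-bp intergenic genomic probes plus negative controls. Binding intensity, read with Alexa488 anti-GST antibody and a 488 nm scan, is the highest Masliner-normalised natural-log median intensity across replicate spots of either probe orientation.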

Row | Sequence | gcPBM binding intensity (ln)
1 | TCAAAAAAGACACACCGTACATACTATTTGGACAGG [XGTACX_site7699] | 10.8 ± 0.4
2 | ATATTTATATTTATGTGTACATATGAAATAATTATT [XGTACX_site7765] | 11.5 ± 0.72
3 | TAATATATTATGAGGGGTACATAATATGGTTTATTG [XGTACX_site8301] | 11.4 ± 0.86
4 | ATATCTTATATCTTCACACATACACAATAAATACAT [CACACA_site5028] | 10.2 ± 0.16
5 | CTAAGAAGTATTTACACACCAACAAGGCGAAAAAAA [CACACA_site2945] | 10.4 ± 0.52
6 | AATGTATTCTCTCATGCACACTTTCTTTAAGGGACC [CACACA_site5245] | 10.19 ± 0.085
7 | TAAGATGATATAGACTGTACATATTGAACTTACAAG [XGTACX_site4290] | 10.9 ± 0.41
8 | ATTCATATTAAATATATATATATATATATATATATA [CACACA_negctrl_site484] | 9.84 ± 0.64
9 | GTTTTTAAATATGCCATACACACTACTATATAATAA [CACACA_site1927] | 10.1 ± 0.3
10 | TAATATATTAATTTTTGTACTTAATTATATGTTTTT [XGTACX_site5654] | 10.9 ± 0.63
11 | GAAGAAAAAGAAAAAAGTACATATATTATATTATAA [XGTACX_site7870] | 11.5 ± 1
12 | GTTGAAAATACAGAACGTACACGTTTGCCATATTGT [XGTACX_site2254] | 11.4 ± 1.1
13 | TTTTTTTTTTTTAGAGTACACACTTTTTTACATTTA [CACACA_site3836] | 11.4 ± 0.83
14 | ATATGATTTATAAAGTGTACCTTATTATAAGAAACA [XGTACX_site7914] | 11.2 ± 0.67
15 | TATGAAATGCTCCAATCACACATGAATGTAATATAT [CACACA_site5458] | 9.765 ± 0.035
16 | ACTTTTATTATTTATATACACACTTGCTGAAATGTT [CACACA_site3637] | 10.26 ± 0.092
17 | AGTTATAAAATATTTGCATGTAAATATATTATCTAT [TGCATGCA_site1015] | 9.715 ± 0.021
18 | AATTTTCTACAAATGTGTACTAAATAAAATATTACT [XGTACX_site7175] | 11.4 ± 0.9
19 | AGAATATAATTTTTATGTACATATATTAAATATATT [XGTACX_site8521] | 11.2 ± 0.59
20 | CACAAAAATAAACACACACACATATATATATATATA [CACACA_site4704] | 10 ± 0.35
21 | ACAATGAGGATATATACACACATACATTAAAAAAAT [CACACA_site6955] | 10.2 ± 0.23
22 | TTTTTCTGTTCTTTTTGTACTTAAATATATTTATTT [XGTACX_site5658] | 11.2 ± 0.69
23 | ATGTGTGTATTTTATAGTACAGTTACAAGCATTTTT [XGTACX_site6351] | 11.3 ± 0.75
24 | AAAAAAGAAAAAAGGACACACATAAATATACACCCG [CACACA_site5590] | 11.3 ± 0.91
25 | AAATATAAATAAAGATGTACATTATCTATATGTGAT [XGTACX_site4863] | 11.1 ± 0.59
